In all, about 81,000 sequences were measured (“one-hybrid fitness for binding parS DNA”: median about -0.17, highest 2% from about 0.51 on). Some of the results follow.
B1: Caulobacter ParB omega fusion; a variant is named by its letters at X, in order, B8GW30 (parent)
chain: MESVVVGEPGMSEGRRGLGRGLSALLGEVDAAPAQAPGEQLGGSREAPIEILQRNPDQPRRTFREEDLEDLSNSIREKGVLQPILVRPSPDTAGEYQIVAGERAWRAAQRAGLKTVPIMVRELDDLAVLEIGIIENVQRADLNVLEEALSYKVLMEKFERTQENIAQTIGKSXSHVANXMRLLXLPDEVQSYLVSGELTAXHARAIAAAADPVALAKQIIEGGLSVRETEALARKAPNLSAGKSKGGRPPRVKDTDTQALESDLSSVLGLDVSIDHRGSTGTLTITYATLEQLDDLCNRLTRGI

Variants of: B1
Experiment: one-hybrid fitness for binding parS DNA (scaled: cognate 1, non-cognate 0); higher = stronger binding
Details: with parS DNA site
In short: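 Bacterial one-hybrid selection in E. coli USO rpoZ- hisB- pyrF- with a HIS3 reporter carrying the site 19 bp from the promoter, screening Caulobacter ParB libraries with four specificity codons randomised (NNS). Cells grew 48 hours at 37°C on M9-minus-histidine plus 0.1 mM IPTG and 5 mM 3-AT. Plasmids before and after selection were Illumina-sequenced, three replicate libraries pooled, and variants under 10 reads dropped. Fitness is the log change in variant-to-wild-type read ratio, rescaled to cognate 1, non-cognate 0.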

one-hybrid fitness for binding parS DNA, 0.231:
RCDH

one-hybrid fitness for binding parS DNA, 0.85:
RFLC

one-hybrid fitness for binding parS DNA, 1.02:
RLMG

one-hybrid fitness for binding parS DNA, ≤ 0.2:
AWAT
SLRC
CCVV
SNGG
NEKN
KRRL
TRYL
LQPM
DLRV
WRSS
VDLA
FAAG
QLQT
VGSI
QPHG
RITQ
IYVS
ETQI
CTPR
IWMS
CPPY
RRII
CVTW
PQFR
VREI
WGKR
PAGC
QSTD
FTYG
WLAY
GTED
SLKN
LVTL
FLDR
YMCG
QCHV
EQKS
KSKK
LRTP
TGKY
KASR
SEAW
LFKF
MYNG
THNK
VDKT
LCIN
DAHM
RDNQ
WHKS
YKKR
FWPT
WFNS
LGSA
RCVF
TLQG
THMN
DRQW
TKDC
IYEM
WYMC
RPSK
QAYK
AYET
CNIS
DPDG
QKTE
TPTP
VHWA
AENC
TCPS
YRMR
VIIV
GTSR
TTYN
HCLE
ELTM
SMHV
SKCF
CYSV
FCTT
TACM
SFPN
HQKG
SALC
QTYQ
CAKV
HHLS
AQKS
EPTL
RENK
ARKI
QTLP
SHCY
LPAD
YPMS
QWPS
VPPT
RKSD
DNLT
TQCH
GAMS
HVVC
NFRT
KGCT
WALR
HHHI
DTAR
EKLT
WLFT
TTCR
QAIY
KCTI
QPTE
WLCG
PSGV
AMIC
GLRV
AEPD
LHMV
ICNR
PTSG
EYSS
ALWC
KIFR
QLPS
WYVR
QDRI
SHAS
TWNV
GSAM
LASC
KCML
ILVP
HCKL
QTHK
DASQ
VQKV
IIMS
SHWS
AASR
QFDM
RAPD
QHAL
IHYA
GTEM
MLAC
TKSS
VLEI
QRSS
PACV
TFRY
WCPG
QTIV
DLSP
TAYP
TYYA
FCYG
RFAD
ERWR
QKPP
QNES
LKVS
QGHL
ACAY
SHTF
SLDN
PHSM
PDKC
MPFG
GNCC
WRLV
EWQR
SIVF
QGLK
TEVT
HQAA
IYVY
IRYG
RHPR
QPAI
TQAN
TGTT
QHSQ
CYEG

one-hybrid fitness for binding parS DNA, 0.352:
RISM

one-hybrid fitness for binding parS DNA, 0.318:
RATM

one-hybrid fitness for binding parS DNA, 0.832:
RMKS

one-hybrid fitness for binding parS DNA, 0.248:
RWYY

one-hybrid fitness for binding parS DNA, 0.387:
RTVN

one-hybrid fitness for binding parS DNA, 0.232:
RTLH

one-hybrid fitness for binding parS DNA, 0.285:
RFTM

Reference: a collection of fitness landscapes (doi:10.1016/j.celrep.2020.107928)
